# According to patent US12564641B2 (EISAI R&D MANAGEMENT CO., LTD., priority 2019, dated 2026):
# Experiments:
# [1] = In vitro DAR-sensitive matrix stability (Octet, bio-layer interferometry); assay type: in vitro ADME; details: average; 10 day incubation at 37° C.; 0.1 mg/mL in mouse, rat, cynomolgus monkey, human plasma and serum
# Description: Samples removed from each time point were transferred to −80° C. for storage. Analysis was performed using a label-free bio-layer interferometry assay. Matrix samples were diluted to 1:20 in 1×PBS containing 0.05% Tween-20 and 1% BSA (assay buffer). […] Negative control samples were 5% matrix-alone. Biotinylated mesothelin at 5 μg/mL in assay buffer was captured on SA streptavidin biosensor tips (300 sec; Pall-ForteBio), followed by capture of diluted stability samples and controls (300 sec). Payload was then quantitated by binding of rabbit-human chimeric anti-eribulin antibody 5E4 at 100 mg/mL. Association was monitored for 300 sec, at which point binding had reached equilibrium. Binding level at the end of dissociation phase (Req) was determined for each sample at 295 sec of association. Stability was determined by plotting percent Req relative to t0, where: percent Req=Reqtx/Reqt0[100] and tx=0-240 hours. 2.9 In Vitro Cytotoxicity Analysis
# 345A12-HC15-LC4-VCP-eribulin (DAR2) was analyzed for in vitro stability in mouse, rat, cynomolgus monkey, and human plasma and serum. ADC was incubated in matrix at 0.1 mg/mL for 1 week, and time points were removed after 1, 2, 3, 4, and 10 days. Analysis was done using a DAR-sensitive Octet (biolayer inferometry)-based assay as described in Section 2.3.1.
# human NSCLC PDX LXFA-737 = details: 10 mg/kg single dose i.v.
# Description: Animals: Female NMRI nu/nu mice (Crl:NMRI-Foxn1nu), 4 to 6 weeks of age.
# Experimental procedure: Animals were monitored until the tumor implants reached the study volume criteria of 50-250 mm^3 (e.g., 80-200 mm^3) in a sufficient number of animals. […] The day of randomization was designated as day 0.
# (§1) Tumors were measured and mice were weighed twice a week during the experimental period. The first day of dosing was day 1, one day after randomization (day 0).
# Statistical analysis: Inhibition of Tumor Growth, Test/Control Value in % (Min. T/C): The test versus control value (T/C in %) was calculated from the ratio of the median residual tumor volume (RTV) values of test versus control groups on day X multiplied by 100. Tumor volume doubling and quadrupling time (Td, Tq) for test and control groups was defined as the time interval (in days) required for a group to reach a median RTV of 200% or 400%.
# [2] = DAR-sensitive stability assay in mouse plasma (Gyrolab); assay type: in vitro ADME; details: 0.1 mg/mL, 37° C., up to 240 hours
# Text: All samples were thawed to ambient temperature and diluted 1:100 for testing. A DAR-sensitive stability assay was developed as stepwise sandwich format on Gyrolab. Assay used biotinylated mesothelin for capture after blocking and sample binding, and Alexa Fluor 647 anti-eribulin 5E4 Fab or Alexa Fluor 647 anti-DM4 (Levena Biopharma) for detection.
# human NSCLC PDX LXFA-586 = assay: Human NSCLC PDX model LXFA-586; details: 25 mg/kg single dose i.v.
# Text: (§2) Animals: Female NMRI nu/nu mice, 4 to 6 weeks of age.
# Xenotransplantation: LXFA-586 established growing tumor (T2N1M0) from a primary non-small cell lung adenocarcinoma human patient.
# Experimental procedure: Animals were monitored until the tumor implants reached the study volume criteria of 50-250 mm^3 (e.g., 80-200 mmi) in a sufficient number of animals. […] The process of the assignment to groups (enrollment, stratified randomization) may also be referred to as randomization. The day of randomization was designated as day 0 of the experiment.
# as §1
# human NSCLC PDX LXFL-529 = assay: Human NSCLC PDX model LXFL-529
# Text: as §2
# Xenotransplantation: LXFL-529 established growing tumor (T3N1M0) from a primary non-small cell lung adenocarcinoma human patient.
# Experimental procedure: Animals were monitored until the tumor implants reached the study volume criteria of 50-250 mm^3 (e.g., 80-200 mm^3) in a sufficient number of animals. […] The process of the assignment to groups (enrollment, stratified randomization) may also be referred to as randomization. The day of randomization was designated as day 0 of the experiment.
# as §1
molecule,measurement,setting,value
"MORAb-109 (DAR2) (conjugate, non-natural residues) heavy: QVQLVESGGGVVQPGRSLRLSCAASGIDLSSYAMSWVRQAPGKGLEWIGVIDISGNRFYADWVKGRFTISRDNSKNTLYLQMSSLRAEDTAVYYCARVDSRAWGPFNLWGQGTLVTVSS[skipping human IgG1 constant region] light: DYQMTQSPSSLSASVGDRVTITCQASQSIFSYLAWYQQKPGKAPKLLIYDASDLASGVPSRFSGSGSGTDFTLTISSLQCEDAATYYCQQGYTRSDVDNAFGGGTKVEIKRTVAAPSVFIFPPSDEQLKSGTASVVCLLNNFYPREAKVQWKVDNALQSGNSQESVTEQDSKDSTYSLSSTLTLSKADYEKHKVYACEVTHQGLSSPVTKSFNRGEC",release of payload,[1],20%
same,Tq (tumor volume quadrupling time),human NSCLC PDX LXFA-737,not reached
same,tolerability / bodyweight,human NSCLC PDX LXFA-737,well tolerated without bodyweight loss
same,minimum T/C,human NSCLC PDX LXFA-737; on day 41,2.3%
same,stability in mouse plasma,[2],more stable than BAY 94-9343
same,Tq (tumor volume quadrupling time),human NSCLC PDX LXFA-586,not reached
same,tolerability / bodyweight,human NSCLC PDX LXFA-586,well tolerated without body weight loss
same,minimum T/C,human NSCLC PDX LXFA-586; on day 41,1.8%
same,anti-tumor efficacy,human NSCLC PDX LXFL-529; 12.5 mg/kg i.v.,robust anti-tumor efficacy
same,anti-tumor efficacy,human NSCLC PDX LXFL-529; 25 mg/kg single dose i.v.,robust anti-tumor efficacy
same,tolerability / bodyweight,human NSCLC PDX LXFL-529; single dose i.v.,well tolerated without bodyweight loss
same,cytotoxicity on MSLN-positive cell lines,MSLN-positive cell lines,specific cytotoxicity
